The structures appear in SMILES notation. Among all 48,000 compounds or so, about 120 (0.25%) were called active. Another 4% or so got no clear call; they are omitted. The call rests on the fitted dose curve; in most records, active means well fitted activation curve with a large enough effect; inconclusive means small, poorly fitted or top-dose-only effect, or another doubt; inactive means no such curve, though single readings can be large or run the other way. The list shows a part of the results.

The nature of the assay: Primary qHTS for Identification of Small Molecule Activators of Huntingtin-Antisense Promoter Activity. Further: nearly all actives have a fitted effect of over 55% in size. Conditions: HEK293 HTT-AS promoter firefly luciferase reporter (activity 0% = vehicle and -100% = no light), 24 h; series mostly up to 57.5 µM; activity change, positive = activation: at the top concentration. The gist of the method:
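Firefly luciferase signal from promoter-reporter HEK293 cells was scaled between vehicle (0%) and zero RLU (-100%). Compounds were tested at final concentrations of up to 57.5 uM over 24 h at 37 degrees C. PTC124 at 50 uM final served as control inhibitor.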
In general terms: In qHTS, concentration-response curves come from the screen itself.
Take `CCCCCn1c(=O)[nH]c2cc(C(=O)Nc3ccc(F)c(F)c3)ccc2c1=O`: the “activity change, positive = activation” value was inactive: -4.46%. As to `Cc1cc(SCC(=O)NCc2ccc(Cl)cc2)nc(=O)[nH]1`, the “activity change, positive = activation” value is inactive: -16.4%. Turning to `CCN(CC)CCOC(=O)c1ccc(NC(=O)c2cc3c(=O)n(CC)c4ccccc4c3s2)cc1`, the “activity change, positive = activation” value was inactive: -10.7%. In the case of `Cc1ccc(S(=O)(=O)N2CCC(C(=O)NCc3ccccc3Cl)CC2)cc1`, the “activity change, positive = activation” value is inactive: -18.1%. Under `Cc1ccccc1C(=O)Nc1cccc(OCc2cc(=O)n3c(C)csc3n2)c1` stands inactive: 7.89%.

For the compound `CCN1CCN(Cc2c(O)ccc3c(C)c(-c4ccc(OC)cc4)c(=O)oc23)CC1`, the “activity change, positive = activation” value was inactive: -22.7%. The value for `COc1ccccc1C1c2c(-c3ccc(Cl)cc3)n[nH]c2C(=O)N1c1ccc(C)cc1` (stereo not given) was inactive: -34.8%.

`Cc1cccc(NC(=O)c2cc(S(=O)(=O)NCCc3ccccc3)ccc2F)c1C`: the “activity change, positive = activation” value was inactive: -22.2%.

As for `COc1ccc(NC(=O)C2=CC(c3ccco3)=NS(=O)(=O)N2C)cc1`, the “activity change, positive = activation” value was inactive: -6.75%. For `Cc1ccccc1S(=O)(=O)Cc1ccc(C(=O)N2CCN(c3cccc(Cl)c3)CC2)o1`, the “activity change, positive = activation” value was inactive: -53.8%. The value for `Oc1cc(O)cc(C=Cc2ccc(O)c(O)c2)c1` was inactive: 9.07%; that for `Cc1ccc(C)c(NC(=O)CN2CCSc3ccc(S(=O)(=O)N4CCCC4)cc32)c1` was inactive: -26.9%.

In the case of `COc1ccccc1N1CCN(c2ncnc3c2nnn3C)CC1`, the “activity change, positive = activation” value is inactive: -1.92%.

As for `COc1ccc(-c2c(C#N)c(SCC(=O)Nc3ccccc3C)nc(C)c2C(=O)Nc2ccc(Cl)cc2)cc1`, the “activity change, positive = activation” value was inactive: -16.9%.

With `CN(c1ccccc1)S(=O)(=O)c1ccc(NC(=O)c2nc(S(C)(=O)=O)ncc2Cl)cc1`, the “activity change, positive = activation” value is inactive: -94.6%. Under `Cc1cc(O)c(C(c2cccc(F)c2)N2CCN(c3ccccc3)CC2)c(=O)n1Cc1ccco1` (stereo not given) stands inactive: 4.44%; under `COC(=O)c1c(NC(=O)CCCOc2cccc(C)c2)sc2c1CCC2`, inactive: 1.92%.

As for `Cc1cc2c(cc1S(N)(=O)=O)S(=O)(=O)CCC2`, the “activity change, positive = activation” value is inactive: -3.13%. Consider `C[C@H]1O[C@H](O[C@H]2[C@H](O)[C@@H](O)[C@@H](O[C@H]3[C@H](O)[C@@H](O)[C@H](O)O[C@@H]3CO)O[C@@H]2CO)[C@H](O)[C@@H](O)[C@@H]1N[C@H]1C=C(CO)[C@@H](O)[C@H](O)[C@H]1O`, for which the “activity change, positive = activation” value is inactive: -2.73%. The value for `Cc1cc(C)n(-c2nnc(Nc3ccc(C)c(C)c3)c3ccccc23)n1` was inactive: -22.3%; that for `COc1ccc(NC(=O)c2sc3nc4c(cc3c2N)CN(Cc2ccccc2)CC4)c(OC)c1` was inactive: -21.5%. The value for `Cc1ccc(C)c(CN2C(=O)c3ccccc3S(=O)(=O)c3ccc(C(=O)OCC4CCCO4)cc32)c1` (stereo not given) was inactive: -22.8%.

As for `COc1ccc(NC(=O)Cn2c(SCc3ccc(C)cc3)nc3cccnc32)cc1OC`, the “activity change, positive = activation” value is inactive: -3.21%. On to `COC(=O)c1cc(Cl)ccc1OC`, for which the “activity change, positive = activation” value was inactive: -3.7%.

Consider `Cc1cccc(NC(=O)Cn2cc(C(=O)C3CCCCC3)c3ccccc32)c1`, for which the “activity change, positive = activation” value was inactive: -25.8%. In the case of `COc1ccc(Cn2c(CCC(=O)NCc3ccc(Cl)cc3)nc3cccnc32)cc1`, the “activity change, positive = activation” value was inactive: -10.9%. Turning to `CCOC(=O)COc1ccc(C2C(C(=O)OC)=C(C)NC3=C2C(=O)c2ccccc23)cc1Cl` (stereo not given), the “activity change, positive = activation” value is inactive: -8.76%.

Take `COc1cccc(CNC(=O)c2cnc3sc(N4CCCC4)nn3c2=O)c1OC`: the “activity change, positive = activation” value is inactive: -5.9%. On to `CCOC(=O)CC(NC(=O)CCc1c(C)nc2c(-c3ccccc3)c(C)nn2c1C)c1ccc(OC(C)C)cc1` (stereo not given), for which the “activity change, positive = activation” value was inactive: -41.5%. For `CSc1ccc(CCNC(=O)NCc2noc3ccccc23)cc1`, the “activity change, positive = activation” value is inactive: -22.5%. `CCOC(=O)c1cc(S(=O)(=O)Nc2cc(OC)ccc2OC)[nH]n1`: the “activity change, positive = activation” value is inactive: -29.6%. Under `Cc1ccc(C(=O)NCC(c2ccc3c(c2)OCO3)N2CCOCC2)cc1C` (stereo not given) stands inactive: -18.4%; under `COc1ccc(CNc2nc(-c3ccco3)nn2S(=O)(=O)c2ccc(Cl)cc2)cc1OC`, inactive: -14.4%; under `O=C(CSc1cn(CC(=O)N2CCCC2)c2ccccc12)Nc1ccc(Cl)cc1`, inactive: -17.9%. Consider `COc1ccc(Cl)cc1NC(=O)c1cc2c(=O)n3ccccc3nc2s1`, for which the “activity change, positive = activation” value was inactive: -2.12%. Regarding `O=C(CC1N=C2c3ccccc3N=C(SCc3ccc(F)cc3)N2C1=O)NCc1ccc2c(c1)OCO2` (stereo not given), the “activity change, positive = activation” value is inactive: -16.2%. Under `Cc1ccc(NC(=O)CSc2nnc3ccc4ccccc4n23)cc1` stands inactive: -16.7%; under `O=C(NCCN1CCN(c2cccc(Cl)c2)CC1)Nc1ccccc1`, inactive: -23.1%. Regarding `CCOC(=O)C1CCN(c2ncnc3c2nc2n3CCCCC2)CC1`, the “activity change, positive = activation” value is inactive: -4.27%. As for `Cc1cccc(C(=O)NCC(c2ccco2)S(=O)(=O)c2cccs2)c1` (stereo not given), the “activity change, positive = activation” value is inactive: 12.5%.

For `Cc1cccc(NC(=O)c2ccc(-c3ccccc3)s2)c1`, the “activity change, positive = activation” value was inactive: 25.4%.

For `CCc1ccc(NC(=O)c2cnn(-c3ccccc3)c2-n2cccc2)cc1`, the “activity change, positive = activation” value is inactive: -15.1%. On to `CCc1cnc2c(c1SCC(=O)NCc1ccccc1Cl)c(=O)n(C)c(=O)n2C`, for which the “activity change, positive = activation” value was inactive: -6.08%. Take `CCC(Oc1ccccc1)C(=O)Nc1nnc(S(=O)(=O)N(CC)CC)s1` (stereo not given): the “activity change, positive = activation” value was inactive: -25.2%. Under `CCC(C)c1ccc2oc(-c3ccc(NC(=O)c4cc5ccccc5o4)cc3)nc2c1` (stereo not given) stands inactive: -25.2%. `CCCC(=O)Nc1nnc(S(=O)(=O)N(C)Cc2ccc(Cl)cc2)s1`: the “activity change, positive = activation” value was inactive: -7.01%. Under `CC(C)c1ccc(S(=O)(=O)c2nnn3c2nc(N2CCCC2)c2sccc23)cc1` stands inactive: -3.12%; under `Cc1cccc(Cn2c(=O)n3nc(-c4ccccc4)nc3c3ccccc32)c1`, inactive: -30.4%. Under `Cn1c(=O)[nH]c2cc(-c3noc(-c4ccc(Br)cc4)n3)ccc21` stands inactive: -10.1%. The value for `Cc1cccc(-c2nn3c(=O)cc(CN4CCN(C(=O)/C=C/c5ccccc5)CC4)nc3s2)c1` was inactive: -13.2%. In the case of `Cc1cnc(Nc2cccc(CN3CCOCC3)c2)nc1Nc1cccc(S(=O)(=O)NC(C)(C)C)c1`, the “activity change, positive = activation” value is inactive: -27.6%. Under `COc1cc2c(C(=O)Nc3cc(OC)c(OC)c(OC)c3)cn(C)c(=O)c2cc1OC` stands inactive: -9.24%; under `CC(C)(C)c1ccc(/C=C/C(=O)Nc2ccc(S(N)(=O)=O)cc2)cc1`, inactive: -40.6%; under `CCN(CC)S(=O)(=O)c1ccc2c(c1)N(CC(=O)Nc1ccccc1F)C(=O)C1CCCN21` (stereo not given), inactive: -6.92%. On to `CCCNC(=O)Cn1c(=O)n(CC2CCC(C(=O)NC)CC2)c(=O)c2sccc21` (stereo not given), for which the “activity change, positive = activation” value was inactive: -9.68%. In the case of `Cc1ccc(NC(=O)/C(C#N)=C/c2ccc(-c3ccc(Cl)c(C(=O)O)c3)o2)cc1C`, the “activity change, positive = activation” value is inactive: 23.5%.

For `COc1ccc(Cn2c(C(=O)O)c(CNCCc3ccco3)c3ccc(OC)cc32)cc1`, the “activity change, positive = activation” value is inactive: -17.2%. Under `O=C1CS(=O)(=O)C2(C(=O)N(Cc3ccccc3Cl)c3ccccc32)N1c1ccc(F)cc1` (stereo not given) stands inactive: -28.4%. The value for `CCOc1cccc(NC(=O)C2CC(=O)N(CC)C(=Nc3ccc(F)cc3)S2)c1` (stereo not given) was inactive: -25.7%; that for `COC(=O)c1c(-c2ccc(Cl)cc2)noc1N1CCN(c2cc(C)ccc2C)CC1` was inactive: -8.79%.

Source of the values: PubChem BioAssay AID1508624 (National Center for Advancing Translational Sciences (NCATS), 2021).
